According to PubChem BioAssay AID1508623 (National Center for Advancing Translational Sciences (NCATS), 2021):
Screen size: about 48,000 compounds; about 450 (0.94%) were called active. Roughly 19% stayed inconclusive and do not appear here. The call rests on the fitted dose curve; in most records, active means well fitted inhibition curve with a large enough effect; inconclusive means small, poorly fitted or top-dose-only effect; inactive means no such curve, though single readings can be large or run the other way. This is one part of the list.

Test: Primary qHTS for Identification of Small Molecule Inhibitors of Huntingtin Promoter Activity; further: nearly all actives have a fitted effect of over 50% in size
Conditions: HEK293 HTT promoter firefly luciferase reporter (activity 0% = vehicle and -100% = no light), 24 h; series mostly up to 57.5 µM; activity change, negative = inhibition: at the top concentration
Procedure, shortened: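 HEK293 luciferase promoter-reporter cells (2,500/well) plated 24 h, then compounds added at up to 57.5 uM final for 24 h at 37 °C. Firefly luminescence by Dual-Glo, normalized to vehicle (0%) and zero RLU (-100%).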

Activity change, negative = inhibition, inactive:
Cc1ccc(-c2cc(C(F)(F)F)n3nc(C(=O)Nc4ccc(Cl)cc4Cl)cc3n2)cc1 -15.4% [at 11.5 µM]
Cc1ccc(NC(=O)CSc2ncc3c(n2)-c2ccccc2N(Cc2cccc(F)c2)S3(=O)=O)cc1F -24.8%
O=C1c2ccccc2C(=O)C1(c1ccccc1)N1CCN(c2cccc(Cl)c2)CC1 -20.2%
CC1CN(C(=O)Nc2ccc(C(=O)NCCc3ccccc3)cc2)c2ccccc2S1 (centres undefined) -27.2%
CCOc1cc(-c2ccc(OC(=O)c3ccccc3F)cc2)cc(=O)c2c(C)oc(C)c12 0.743%
Cc1cc(C)nc(NS(=O)(=O)c2ccc(NC(=O)COc3ccc(Cl)cc3C)cc2)n1 -15.3%
CCOc1ccc(C(=O)Nc2cc(-c3nc4ccccc4o3)ccc2C)cc1Cl 19.7%
CCN(Cc1ccccc1)C(=O)c1c(C)oc2ncn(C)c(=O)c12 0%
O=C(CSc1nccn1Cc1ccccc1)NCc1ccc(F)cc1 1.97%
O=C(CCCCCCC(=O)Nc1ccccc1)NO
COc1ccc(-n2nc3ccc(NC(=O)c4ccc(-c5cc(Cl)ccc5Cl)o4)cc3n2)cc1 -0.841%
Clc1cccc(N2CCN(c3nc4ccccc4n4cnnc34)CC2)c1 1.51%
COc1cccc(NC(=O)C2CCCN(S(=O)(=O)c3c(C)[nH]c(=O)[nH]c3=O)C2)c1 (centres undefined) -15.1%
CCN(c1cc(C)cc(C)c1)S(=O)(=O)c1nnc(NC(=O)C2CCCCC2)s1 -3.2%
O=C(Nc1ccc(Br)c2cccnc12)c1cccc2ccccc12 -1.2%
Cc1cc(C)cc(NC(=O)CCC(=O)N2Cc3ccccc3Oc3ncccc32)c1 -20.9%
Cc1ccc(CCNC(=O)c2cc3sccc3n2Cc2ccc(C)cc2)cc1 -18.9%
CCCc1cnc2c(c1SCC(=O)N(C)c1ccccc1)c(=O)n(C)c(=O)n2C -7.27%
Cc1c(Cl)ccc2sc(NC(=O)c3ccc(S(=O)(=O)N4CCCc5ccccc54)cc3)nc12 -16%
CCc1ccccc1NC(=O)c1nnn(-c2ccc(F)cc2)c1C 36%
COc1cc2ccccc2cc1C(=O)Nc1ccc2oc(-c3ccc(F)cc3)nc2c1 41%
Cc1cc(C)cc(-n2c(SCC(=O)N3CCCCC3)nc3c([nH]c4ccccc43)c2=O)c1 -18.5%
CCOc1ccc(NC(=O)Cn2c(=O)n(Cc3ccco3)c(=O)c3oc4ccccc4c32)cc1 -7.01%
Cc1cc(C)c(CSc2nnc(C)n3c2cc2occc23)c(C)c1 -12%
CCN(Cc1ccccc1)C(=O)c1nc(-c2cccc(F)c2)n2c1CCCCC2 -26.1%
COCCCNC(=O)C1CCCN(C(=O)c2cnn(-c3ccc(F)cc3)c2-n2cccc2)C1 (centres undefined) -17.1%
Cc1ccc(SCc2nc(-c3ccc(C(=O)NCc4ccc(Cl)cc4)cc3)oc2C)cc1 2.93%
O=C(NC1CCCCC1)c1cc(Nc2cccc(C(F)(F)F)c2)nc2ccccc12 -20.8%
COc1cc(NC(=O)c2noc3c2CSc2ccccc2-3)cc(OC)c1OC -25.6%
Cc1ccn2c(=O)cc(CSc3nnc(NC(=O)c4ccccc4Cl)s3)nc2c1 9.67%
COc1cc(C(=O)Nc2nc3nc(-c4ccccc4)cc(=O)n3[nH]2)cc(OC)c1OC -15.1%
COc1ccc(CNC(=O)c2cc3c(=O)[nH]c4ccccc4c3s2)cc1 -6.32%
Cc1cccc(N2CCN(C(=O)NCc3noc4ccccc34)CC2)c1C -9.74%
CCOC(=O)c1ccccc1NC(=O)CCOc1ccccc1 33%
O=C(NC1CCCCC1)c1cc2c(Cl)nc3ccccc3c2s1 4.08%
CCOc1ccc(NC(=O)C(NS(=O)(=O)c2cccc3nsnc23)c2ccccc2)cc1 (centres undefined) -11.8%
COc1ccccc1CNC(=O)C(=O)NCC(c1ccco1)S(=O)(=O)c1cccs1 (centres undefined) -17.1%
OCCCc1nc2ccccc2n1CCCCOc1ccccc1 -30.9%
Cc1cccc(-c2noc(CN(C(=O)COc3ccc(Br)cc3C)C(C)C)n2)c1 -29%
O=C(CCN1CCN(CCO)CC1)N1c2ccccc2Sc2ccc(C(F)(F)F)cc21 2.35%
CCn1cc(C(=O)N2CCN(c3cc(C)ccc3C)CC2)c(=O)c2cc(S(=O)(=O)N3CCOCC3)ccc21 3.34%
CCOC(=O)c1c(N)n(-c2cccc(OC)c2)c2nc3ccccc3nc12 -2.78%
Cc1ccc(C)n1-c1c(C(=O)NCCC(C)C)sc2ncccc12 -26.6%
Cc1oc2ncn(CC(C)C)c(=O)c2c1C(=O)N1CCN(c2cccc(C(F)(F)F)c2)CC1 -32.3%
Cc1cccc(-n2ncc3c(Nc4ccc(Oc5ccc(Cl)cc5)cc4)ncnc32)c1 -10.6%
Cc1ccc(CNC(=O)CCCCn2c(=O)c3ccccc3n(Cc3c(C)cc(C)cc3C)c2=O)cc1 -8.75%
COc1cccc(NC(=O)CSC2=Nc3ccccc3C3=NC(CC(=O)NCCc4ccccc4)C(=O)N23)c1 (centres undefined) -12.7%
CCOC(=O)c1ccccc1NC(=O)Cn1c(=O)n(Cc2nc(-c3ccccc3)no2)c(=O)c2ccccc21 -7.77%
COc1ccccc1N1CCN(C(=O)Cn2ncc3c([nH]c4ccccc43)c2=O)CC1 -0.634%
O=C(CCc1nc(CN2CCN(S(=O)(=O)c3ccc(F)cc3)CC2)no1)N1CCCCC1 -6.95%
COc1cccc(NC(=O)CSC2=Nc3ccccc3N=C(c3ccc(F)cc3)C2)c1 -18.5%
O=C(c1ccc2c(c1)N(Cc1ccccc1F)C(=O)c1ccccc1S2(=O)=O)N1CCCCC1 -0.884%
C[C@]12C[C@H](O)[C@H]3[C@@H](CCC4=CC(=O)CC[C@@]43C)[C@@H]1CC[C@@H]2C(=O)CO 0.262%
CCc1ccc(C(=O)c2cn(CC(=O)NCCc3ccc(OC)c(OC)c3)c3nc(C)ccc3c2=O)cc1 -9.96%
O=c1nc2sc3ccccc3n2c(=O)n1-c1ccc(Cl)c(Cl)c1 -13.7%
Cc1ccc(NC(=O)c2cccc(N(C)C)c2)cc1NC(=O)c1ccc(O)cc1 8.13%
COc1ccccc1NC(=O)Cn1c(=O)n(-c2cccc(C(C)=O)c2)c(=O)c2c3c(sc21)CN(C(C)=O)CC3 -6.62%
CCN1CCN(C(=O)c2cnn(-c3ccc(F)cc3)c2-n2cccc2)CC1 -27.1%
Cc1ccc(C2C=C(c3ccc(Cl)cc3)Nc3nc(NS(=O)(=O)c4ccccc4)nn32)cc1 (centres undefined) -11.2%
O=C(CCC1N=C2c3ccccc3N=C(SCC(=O)Nc3ccccc3F)N2C1=O)NCc1ccccc1 (centres undefined) -2.16%
COc1ccccc1-c1noc(-c2ccc(N3CCC(C)CC3)c([N+](=O)[O-])c2)n1 32.7%
COc1cc(C(=O)Nc2cc3c(cc2C)n(C)c(=O)c(=O)n3C)cc(OC)c1OC 6.42%
CCC(=O)N1CCc2cc(S(=O)(=O)NC(Cc3ccccc3)C(=O)Nc3ccc(C)cc3)ccc21 (centres undefined) -23.3%
Cc1ccc(NC(=O)c2sc3nc(-c4cc5ccccc5oc4=O)[nH]c(=O)c3c2C)c(C)c1 7.16%
O=C(CC1Sc2ccc(C(F)(F)F)cc2NC1=O)Nc1ccc(Cl)c(C(F)(F)F)c1 (centres undefined) -9.3%
CCOc1ccc(-n2c(SCc3ccc(C(=O)OC)o3)nc3c([nH]c4ccccc43)c2=O)cc1 -15.5%
CCN1C(=O)c2ccccc2Sc2ccc(NC(C)=O)cc21 -7.93%
COc1cc(C(=O)Nc2cc(C)ccc2OCc2cc(=O)n3c(C)csc3n2)cc(OC)c1OC 4.69%
O=C(Nc1ccc(Br)cc1F)c1cc(S(=O)(=O)NCc2ccc(F)cc2)ccc1F -31.7%
COc1ccc(NC(=O)c2cc3c(s2)-c2c(C)cccc2OC3)c(OC)c1 -6.12%
CCCCNc1nc(Oc2ccc(=O)[nH]n2)nc(N(C)C)n1 -10.8%
C=C(C)Cn1c(=O)c2c(nc3n2CCN3c2ccc(CC)cc2)n(C)c1=O 0.0466%
CCc1nn(CC(=O)NCCCN(CC)CC)c(=O)c2cc3sc(C)cc3n12 -8.1%
CSc1ncc(C(=O)Nc2ccccc2C(=O)c2ccccc2)c(C(F)(F)F)n1 -11.2%
Fc1ccc(-n2cc(-c3ccccc3)c3c(NC4CCCCC4)ncnc32)cc1 -21.8%
Cc1ccc(-n2ncc3c(NCCCN4CCOCC4)ncnc32)cc1 -5.52%
COc1cccc(-n2c(=O)c3c(C)c(C(=O)N(C)C)sc3n(Cc3ccc(F)cc3Cl)c2=O)c1 -0.439%
CCn1c2ccccc2c2nnc(N3CCN(c4cc(C)ccc4C)CC3)nc21 3.56%
CCOc1ccccc1NC(=O)c1cc2c(Cl)nc3ccccc3c2s1 1.09%
COc1ccc(NC(=O)C2Cc3ccccc3N2C(=O)c2ccccc2)c(OC)c1 (centres undefined) 0%
CCN(CCCNC(=O)c1c(C)oc2ncn(CC(C)C)c(=O)c12)Cc1ccccc1 9.98%
COc1ccc(N(Cc2cccs2)C(=O)COc2cccc(Cl)c2)cc1 -29.3%
Cc1ccc(Cl)cc1NC(=O)c1oc2c(c1C)-c1[nH]ncc1CC2 57.2%
Cn1c(=O)n(-c2ccc(F)c(Cl)c2)c(=O)c2sc3ccccc3c21 -7.29%
CCC1CCCCN1C(=O)c1ccc2c(c1)N(Cc1cccc(Cl)c1)C(=O)c1ccccc1S2(=O)=O (centres undefined) -55.4%
CCOC(=O)c1cnc2c(Cl)cccc2c1NCCN1CCOCC1 -2.04%
CCOc1cccc2cc(-c3nc(-c4ccccc4C)no3)c(=O)oc12 45.5%
Cc1ccc(Oc2c(C(F)(F)F)oc3c(CN4CCCCC4)c(O)ccc3c2=O)cc1 -41.6%
Cc1cc(F)ccc1NC(=O)CCS(=O)(=O)c1ccc2c(c1)NC(=O)CO2 -5.85%
O=C(Nc1ccc(Cl)cc1)C1CCCN(S(=O)(=O)c2ccc3[nH]c(=O)ccc3c2)C1 (centres undefined) -27.4%
CCOC(=O)c1ccccc1NC(=O)CSc1cn(CC(=O)N2CCCCC2)c2ccccc12 -0.878%
Cc1nc2c(-c3ccccc3)c(C)nn2c(C)c1CCC(=O)NC(C)c1ccccc1 (centres undefined) -29%
COc1cc(Cl)cn2c(-c3cccc(NC4CNC4)n3)cnc12 -27.8%
COc1cccc(CNC(=O)C2CCCN(S(=O)(=O)c3ccc4c(ccn4C)c3)C2)c1 (centres undefined) -20%
